The whole screen tested about 310,000 compounds, of which about 14,000 (4.5%) showed an effect of 50% or more. The effect is printed as a negative number. This is one part of the list.
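Note: peak tail current of the secondary pulse compared with the same well before compound.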

human ether-à-go-go-related gene (hERG) potassium channel, sequence (Q12809 whole entry, looked up): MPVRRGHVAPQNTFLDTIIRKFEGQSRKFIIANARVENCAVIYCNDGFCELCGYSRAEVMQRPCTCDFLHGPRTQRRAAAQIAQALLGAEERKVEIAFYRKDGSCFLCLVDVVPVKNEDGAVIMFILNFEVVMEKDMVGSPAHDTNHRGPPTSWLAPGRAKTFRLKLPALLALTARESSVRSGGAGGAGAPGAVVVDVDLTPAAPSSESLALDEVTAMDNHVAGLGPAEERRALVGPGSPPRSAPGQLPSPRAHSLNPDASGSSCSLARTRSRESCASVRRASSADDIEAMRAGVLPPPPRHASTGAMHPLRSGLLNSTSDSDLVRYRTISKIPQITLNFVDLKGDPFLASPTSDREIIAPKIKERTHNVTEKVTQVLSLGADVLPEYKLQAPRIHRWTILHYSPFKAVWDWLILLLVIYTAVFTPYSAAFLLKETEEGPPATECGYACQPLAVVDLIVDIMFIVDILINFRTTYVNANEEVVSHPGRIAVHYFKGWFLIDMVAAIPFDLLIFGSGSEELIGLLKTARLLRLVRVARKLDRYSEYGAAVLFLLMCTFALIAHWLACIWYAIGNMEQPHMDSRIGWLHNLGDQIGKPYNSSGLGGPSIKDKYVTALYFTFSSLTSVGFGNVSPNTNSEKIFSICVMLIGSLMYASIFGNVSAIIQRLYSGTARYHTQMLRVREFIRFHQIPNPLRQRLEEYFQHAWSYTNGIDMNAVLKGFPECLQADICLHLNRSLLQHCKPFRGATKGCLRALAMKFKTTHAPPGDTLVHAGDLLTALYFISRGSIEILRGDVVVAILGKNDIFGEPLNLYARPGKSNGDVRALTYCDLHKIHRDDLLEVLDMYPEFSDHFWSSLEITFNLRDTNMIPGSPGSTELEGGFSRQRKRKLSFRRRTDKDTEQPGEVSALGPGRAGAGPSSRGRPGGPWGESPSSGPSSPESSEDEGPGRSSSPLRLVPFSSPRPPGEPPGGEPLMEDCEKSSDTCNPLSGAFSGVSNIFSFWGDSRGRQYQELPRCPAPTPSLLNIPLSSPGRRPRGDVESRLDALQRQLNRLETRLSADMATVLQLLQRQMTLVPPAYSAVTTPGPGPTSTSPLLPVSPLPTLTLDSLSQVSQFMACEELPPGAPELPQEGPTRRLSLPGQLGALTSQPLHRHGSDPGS

The assay has as its target human ether-à-go-go-related gene (hERG) potassium channel (human, UniProt Q12809). Kind of assay: primary screen, population patch clamp on CHO cells stably expressing hERG.
For `CCOc1cc(C)c(C(C)C)cc1S(=O)(=O)N1CCOCC1`, the “hERG current change (%, negative = inhibition) at 10uM” value is given as -0.0443%.
As for `CCCNC(=O)c1ccc(N2CCC3(CC2)CC(c2cccc(Br)c2)=NO3)c(NC(=O)c2cccc(C)c2)c1`, the figure is 11.7%.
In the case of `CC(C)(C)c1ccc(C(=O)N/C(=C\c2ccco2)C(=O)Nc2ccccc2C(=O)O)cc1`, the “hERG current change (%, negative = inhibition) at 10uM” value is reported as 24%.
On to `Clc1cccc(Oc2ncc(CN3CCOCC3)s2)c1`, for which the “hERG current change (%, negative = inhibition) at 10uM” value came out at 0.97%.
As for `Cc1ccc(NC(=O)Cn2cnc3cc([N+](=O)[O-])ccc3c2=O)c(Cl)c1`, the figure is 16.4%; as for `Cc1ccc(C(=O)c2c(C)oc3c2C(=O)C(=O)c2ccccc2-3)cc1`, -2.38%; as for `CC(C)C[C@H](NC(=O)Nc1ccc(Oc2ccccc2)cc1)C(=O)O`, 9.65%.
Take `CC(=O)c1cccc(NC(=O)C(C)OC(=O)CNC(=O)c2ccc(C)s2)c1` (stereo not drawn): the “hERG current change (%, negative = inhibition) at 10uM” value is on record as 16.7%.
As for `CCc1ccc(C(=O)COC(=O)C(Cc2ccccc2)NC(=O)c2ccc(Cl)cc2)cc1` (stereo not drawn), the figure is 7.75%; as for `C=CCn1c(-c2sc3nc(C)cc(C)c3c2N)n[nH]c1=S`, 18%.
As for `O=C(NCC(c1cccs1)N1CCOCC1)c1cc(-c2ccccn2)nc2ccccc12` (stereo not drawn), the figure is -23%; as for `O=C(O)CC1SC(=O)N(CC(=O)c2ccccc2)C1=O` (stereo not drawn), 5.23%; as for `CCn1c(=O)cc(OCC(=O)NCc2ccco2)c2ccccc21`, 0.766%.
Under `C/C(=N\NC(=O)CNC(=O)C1COc2ccccc2O1)c1ccc(Cl)cc1` (stereo not drawn) stands -17.6%.
On to `COC(=O)c1ccc(S(=O)(=O)NCCc2ccccc2OC)n1C`, for which the “hERG current change (%, negative = inhibition) at 10uM” value was -7.34%.
In the case of `Br.N=C1c2ccccc2CN1c1ccc(N2CCOCC2)c(S(=O)(=O)Nc2ccc(Cl)cc2)c1`, the “hERG current change (%, negative = inhibition) at 10uM” value was -81%.
As for `CC(=O)c1cccc(NC(=O)Oc2ccccc2)c1`, the figure is 11.6%.
As for `COc1ccc(C(=O)Oc2ccc(/C=N/NC(=O)c3cccnc3)cc2OC)cc1`, the figure is 0.369%.
As for `O=C(Cc1cccs1)NNC(=O)c1ccc(F)cc1`, the figure is 3.91%; as for `COc1ccc(Cl)cc1C(=O)N1CCN(Cc2ccc3c(c2)OCO3)CC1`, -20.5%; as for `CCOC(=O)CC(=O)CSc1nc2cc(C)ccc2cc1C`, 18.8%.
Take `ClCc1ncc(-c2ccc(Cl)cc2)o1`: the “hERG current change (%, negative = inhibition) at 10uM” value turned out to be 33.5%.
Regarding `CC(=O)Nc1ccc(NC(=O)CSc2ncc(C(=O)Nc3ccccc3)c(=O)n2C)cc1`, the “hERG current change (%, negative = inhibition) at 10uM” value was 0.205%.
As for `CCCC(=O)Nc1c(-c2cccs2)c(=O)c2ccccc2n1C`, the figure is -13.6%; as for `Cc1ccc(CN(C(=O)c2cc(=O)c3cc(C)cc(C)c3o2)C2CCS(=O)(=O)C2)cc1` (stereo not drawn), -32.1%; as for `Cc1ccc(-n2nc3c(c2NC(=O)c2ccc4c(c2)OCO4)CSC3)cc1`, 5.99%.
Under `CCOC(=O)c1cc(-c2ccc(C#N)cc2)nc2c1c(C)nn2CCC#N` stands -37.7%; under `CC(C)CCN1CCN=C1Nc1ccccc1`, 12.1%.
Under `Cc1cc(C)n(CC(=O)NN)n1` stands 42.8%; under `Oc1ccc(C(=C(Cl)Cl)c2ccc(O)cc2)cc1`, 12.1%.
In the case of `COC(=O)Nc1ccccc1C(=O)N1CCCCC1`, the “hERG current change (%, negative = inhibition) at 10uM” value turned out to be 4.62%.
As for `O=C(O)CCC(=O)N1N=C(c2ccco2)CC1c1ccco1` (stereo not drawn), the “hERG current change (%, negative = inhibition) at 10uM” value is on record as -78.1%.
As for `COc1ccc(NC(=O)CSc2nnc(Cc3ccccc3)c(=O)n2N)c(OC)c1`, the figure is -18.1%; as for `COc1cccc(NC(=O)CSc2nnc(CNC(=O)c3ccccc3F)o2)c1`, -28.5%.
Under `CCS(=O)(=O)NCc1cn2c(C)csc2n1` stands -7.77%; under `CC(C)(C)OC(=O)NCCOC(=O)c1[nH]cnc1C(=O)NCc1ccccc1`, -18.3%; under `CC1CCN(Cc2nc(-c3ccccc3)no2)CC1.Cl`, -0.43%.
As for `Cn1nccc1C(=O)N1CCC2(CC1)OCCO2`, the figure is 11.5%; as for `Cc1ccc(NC(=O)NCCCN2CCCC2=O)c(C)c1`, -1.12%.
For the molecule `OC(CNCc1ccccc1)(c1ccc(F)cc1)c1ccc(F)cc1`, the “hERG current change (%, negative = inhibition) at 10uM” value is -38.1%.
`COc1ccc(/C=N/NC(=O)c2cccnc2)cc1`: the “hERG current change (%, negative = inhibition) at 10uM” value was 10.8%.
`COc1cccc2cc(C(C)OC(=O)Nc3ccc(C)cc3)oc12` (stereo not drawn): the “hERG current change (%, negative = inhibition) at 10uM” value is 8.64%.
As for `CC(=O)N1CCN(c2ccc(NC(=O)c3ccc([N+](=O)[O-])cc3Cl)cc2)CC1`, the figure is -8.49%; as for `COCCCn1c(=O)c2sccc2n2c(CCCC(=O)NCc3cccc(OC)c3)nnc12`, -6.59%; as for `c1ccc(-c2cn(C[C@H]3CC[C@@H]([C@@H]4CC[C@H](Cn5cc(-c6ccccn6)nn5)O4)O3)nn2)nc1`, -6.73%.
Under `Cc1ccc2nc(NC(=O)CSc3nc4c(c(=O)n3C)SC(C)C4)sc2c1` (stereo not drawn) stands -15%.
With `CCOC(=O)c1nnn2c1nc(Nc1cccc(C(F)(F)F)c1)c1ccccc12`, the “hERG current change (%, negative = inhibition) at 10uM” value amounted to 12.3%.
In the case of `CCOC(=O)c1ccc(Nc2ncnc3nc[nH]c23)cc1`, the “hERG current change (%, negative = inhibition) at 10uM” value was 5.27%.
Under `Cc1nn(-c2ccccc2)c(Cl)c1/C=C1\C(=O)N(C)C(=S)N1C` stands -6.34%; under `COc1cccc(NC(=O)CN2CCSc3ccccc32)c1`, -3.38%; under `Cc1cc(C(=O)OCC(=O)Nc2ccc(F)cc2F)c(C)o1`, -2.18%.
As for `O=C(C1=C(O)C(=O)N(c2ncccn2)C1c1cccc(Cl)c1)c1ccco1` (stereo not drawn), the figure is 10.4%; as for `C/C(=N/NC(=O)c1ccc(Br)o1)c1cccs1`, 2.61%; as for `CN(C)c1ccc(C2Nc3ccccc3C(=O)N2CCN2CCNC2=O)cc1` (stereo not drawn), -0.887%.
In the case of `O=C(NCc1ccc2c(c1)OCO2)c1cccc(Cl)c1`, the “hERG current change (%, negative = inhibition) at 10uM” value is listed as -0.96%.
In the case of `COc1ccc(/C=N/NC(=O)C(C)n2nnc3ccccc32)cc1OC` (stereo not drawn), the “hERG current change (%, negative = inhibition) at 10uM” value is 2.4%.
Under `CCOc1ccc(C(C(=O)NCC2CCCO2)N(C(=O)c2snc(C(N)=O)c2N)c2ccc3c(c2)OCCO3)cc1` (stereo not drawn) stands 16.7%.
